# In ChEMBL document CHEMBL5606458, “ASAP - ZIKV NS2B-NS3 protease fluorescence single point” (2024):
# In all, about 2,700 compounds went through this assay and about 160 (5.9%) showed an effect of 50% or more. Some of the results follow.
# Biological target: Nonstructural protein 3 (Zika virus) (UniProt A0A024AXB9)
# [1] = PRVABC59, Concentration 50.0 uM, Number of replicates 1.0
# [2] = PRVABC59, Concentration 15.0 uM, Number of replicates 1.0
# UniProt A0A024AXB9, sequence (A0A024AXB9 as listed by the source): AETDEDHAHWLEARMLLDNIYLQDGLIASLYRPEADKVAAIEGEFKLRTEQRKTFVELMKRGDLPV
compound,measurement,setting,value
O=Cc1ccc(N2CCC(C(=O)Nc3cnn(-c4ccccc4)c(=O)c3Cl)CC2)cc1,inhibition,[1],23.2%
CC(C)COc1ccc(CNC(=O)c2cc(Cl)ccc2NS(=O)(=O)c2ccc(Oc3ccccc3Cl)cc2)cc1,inhibition,[2],12.2%
Cc1cnccc1NC(=O)c1cc(C2CCCC2)n(C)c1C,inhibition,"PRVABC59, Concentration 49.5 uM, Number of replicates 2.0, Standard deviation 2.3333933807570615 %",-1.32%
same,inhibition,"PRVABC59, Concentration 99.01 uM, Number of replicates 2.0, Standard deviation 1.0190135220670546 %",2.25%
same,inhibition,"PRVABC59, Concentration 198.0 uM, Number of replicates 2.0, Standard deviation 1.094495661764367 %",8.21%
CCN(C(=O)c1cc(C)cc2cn[nH]c12)[C@H]1CCN(C(=O)c2nc(N)ccc2C)C1,inhibition,"PRVABC59, Concentration 49.5 uM, Number of replicates 2.0, Standard deviation 1.4042129581584302 %",-8.39%
CC(=O)N[C@@H](CCCCN)C(=O)Nc1cccc2c(CO)cc(C)nc12,inhibition,"PRVABC59, Concentration 49.95 uM, Number of replicates 2.0, Standard deviation 2.062511665720634 %",70.2%
same,inhibition,"PRVABC59, Concentration 99.9 uM, Number of replicates 2.0, Standard deviation 0.26572610179233236 %",93.5%
CN(C)C1(CNC(=O)C2CCN(c3ccc(C=O)cc3)CC2)CCOCC1,inhibition,[1],20%
Cc1nc([C@H]2CCCNC2)[nH]c1C(=O)Nc1cc(-c2cccnc2)n[nH]1,inhibition,"PRVABC59, Concentration 49.5 uM, Number of replicates 2.0, Standard deviation 1.073120297486188 %",1.96%
same,inhibition,"PRVABC59, Concentration 99.01 uM, Number of replicates 2.0, Standard deviation 1.2142159765956841 %",7.26%
same,inhibition,"PRVABC59, Concentration 198.0 uM, Number of replicates 2.0, Standard deviation 1.840202887040708 %",14.6%
NCc1cccc(NC(=O)[C@H]2CN(C(=O)OCc3ccccc3)CC23CCOCC3)c1,inhibition,"PRVABC59, Concentration 49.5 uM, Number of replicates 2.0, Standard deviation 2.1231725289643024 %",1.7%
same,inhibition,"PRVABC59, Concentration 99.01 uM, Number of replicates 2.0, Standard deviation 0.8161413526338066 %",5.13%
same,inhibition,"PRVABC59, Concentration 198.0 uM, Number of replicates 2.0, Standard deviation 1.1474165934537979 %",10.8%
CNC(=O)c1ccccc1NC(=O)c1cc(Cl)ccc1NS(=O)(=O)c1ccc(Oc2ccccc2Cl)cc1,inhibition,[2],12.1%
O=C(CNC(=O)c1cc(Cl)ccc1NS(=O)(=O)c1ccc(Oc2ccccc2Cl)cc1)NCc1ccccc1,inhibition,[2],33.2%
CC(=O)N[C@@H](CCCN)C(=O)Nc1cccc2cccnc12,inhibition,"PRVABC59, Concentration 49.95 uM, Number of replicates 2.0, Standard deviation 1.6196420224622259 %",19.2%
same,inhibition,"PRVABC59, Concentration 99.9 uM, Number of replicates 2.0, Standard deviation 2.0688397621434533 %",38.7%
CNS(=O)(=O)c1ccc(CNCc2ccc(N3CCN(C)CC3)cc2)cc1,inhibition,"PRVABC59, Concentration 49.5 uM, Number of replicates 2.0, Standard deviation 1.6932523363234724 %",-6.47%
same,inhibition,"PRVABC59, Concentration 99.01 uM, Number of replicates 2.0, Standard deviation 2.0489123949927146 %",-5.52%
same,inhibition,"PRVABC59, Concentration 198.0 uM, Number of replicates 2.0, Standard deviation 0.780906250103911 %",-3.86%
Cc1cc(CO)c2cccc(Cc3ccccc3C(=O)Nc3cc(C)on3)c2n1,inhibition,"PRVABC59, Concentration 49.95 uM, Number of replicates 2.0, Standard deviation 0.7445712834152752 %",-2.77%
same,inhibition,"PRVABC59, Concentration 99.9 uM, Number of replicates 2.0, Standard deviation 1.0119877161772735 %",0.512%
O=Cc1ccc(N2CCC(C(=O)N3CCN(CCc4ccncc4)CC3)CC2)cc1,inhibition,[1],23.8%
Cc1cc(CO)c2cccc(Cc3ccccc3NC(=O)Cc3c(C)c4c(=O)[nH]n(C)c4[nH]c3=O)c2n1,inhibition,"PRVABC59, Concentration 49.95 uM, Number of replicates 2.0, Standard deviation 2.3870518401485845 %",19.5%
same,inhibition,"PRVABC59, Concentration 99.9 uM, Number of replicates 2.0, Standard deviation 1.6185118125725577 %",39.4%
O=C(Nc1ccn(C2CCC2)n1)c1ccn([C@H]2CCCNC2)n1,inhibition,"PRVABC59, Concentration 49.5 uM, Number of replicates 2.0, Standard deviation 2.999141248765626 %",-2.8%
same,inhibition,"PRVABC59, Concentration 99.01 uM, Number of replicates 2.0, Standard deviation 3.4363455969408965 %",-1.8%
same,inhibition,"PRVABC59, Concentration 198.0 uM, Number of replicates 2.0, Standard deviation 3.522152218310256 %",-2.36%
O=C(NC1(c2ccc(Cl)cc2)CC1)c1cc(Cl)ccc1NS(=O)(=O)c1ccc(Oc2ccccc2Cl)cc1,inhibition,[2],28.6%
CNC(=O)c1cc(Cl)ccc1NS(=O)(=O)c1ccc(NS(C)(=O)=O)cc1,inhibition,"PRVABC59, Concentration 49.5 uM, Number of replicates 2.0, Standard deviation 1.6580072028436312 %",1.65%
same,inhibition,"PRVABC59, Concentration 99.01 uM, Number of replicates 2.0, Standard deviation 2.2961683990684207 %",3.81%
same,inhibition,"PRVABC59, Concentration 198.0 uM, Number of replicates 2.0, Standard deviation 2.5082156002477025 %",8.28%
O=Cc1ccc(N2CCC(C(=O)NCCc3nc(-c4ccc(Cl)cc4)no3)CC2)cc1,inhibition,[1],-7.2%
CC(C)Nc1nc2ccc(C(=O)Nc3cncc(F)c3)cc2[nH]1,inhibition,"PRVABC59, Concentration 49.5 uM, Number of replicates 2.0, Standard deviation 1.4741646134188342 %",-1.02%
same,inhibition,"PRVABC59, Concentration 99.01 uM, Number of replicates 2.0, Standard deviation 2.287675471918688 %",0.621%
same,inhibition,"PRVABC59, Concentration 198.0 uM, Number of replicates 2.0, Standard deviation 1.5855689928394727 %",4.79%
Cc1nc(C)c(CN2CCC(c3c[nH]c4cccnc34)CC2)s1,inhibition,"PRVABC59, Concentration 49.5 uM, Number of replicates 2.0, Standard deviation 2.1874753856814944 %",-6.55%
Cc1cc(CO)c2cccc(NC(=O)c3ccno3)c2n1,inhibition,"PRVABC59, Concentration 49.95 uM, Number of replicates 2.0, Standard deviation 1.4000623365170772 %",5.33%
same,inhibition,"PRVABC59, Concentration 99.9 uM, Number of replicates 2.0, Standard deviation 2.002239649301327 %",19.5%
O=Cc1ccc(N2CCC(C(=O)Nc3nc(Cl)nc4nc[nH]c34)CC2)cc1,inhibition,[1],22.6%
Cc1cc(CO)c2cccc(Cc3cccc(C(=O)N[C@H](Cc4c[nH]cn4)C(=O)O)c3)c2n1,inhibition,"PRVABC59, Concentration 49.95 uM, Number of replicates 2.0, Standard deviation 1.4262210309264547 %",-4.51%
same,inhibition,"PRVABC59, Concentration 99.9 uM, Number of replicates 2.0, Standard deviation 1.1168569567330493 %",-0.957%
C[C@H](NC(=O)C1CCN(c2ccc(C=O)cc2)CC1)c1ccc(Cl)cc1Cl,inhibition,"PRVABC59, Concentration 10.0 uM, Number of replicates 1.0",9.85%
Cc1cc(CO)c2cccc(Cc3ccccc3C(=O)N3CCO[C@@H](CN)C3)c2n1,inhibition,"PRVABC59, Concentration 99.9 uM, Number of replicates 2.0, Standard deviation 2.9992587541792743 %",-6.8%
Cc1cc(-c2nn(C)cc2NC(=O)c2ccccc2C(F)(F)F)[nH]n1,inhibition,"PRVABC59, Concentration 49.5 uM, Number of replicates 2.0, Standard deviation 1.8946804704330402 %",-3.15%
same,inhibition,"PRVABC59, Concentration 99.01 uM, Number of replicates 2.0, Standard deviation 0.666066751064398 %",-1.39%
same,inhibition,"PRVABC59, Concentration 198.0 uM, Number of replicates 2.0, Standard deviation 1.3743584908968294 %",2.3%
Cc1nc2cc(CN3CCC[C@H](c4cc5ccccc5[nH]4)C3)ccc2[nH]1,inhibition,"PRVABC59, Concentration 49.5 uM, Number of replicates 2.0, Standard deviation 1.183547569395641 %",3.3%
same,inhibition,"PRVABC59, Concentration 99.01 uM, Number of replicates 2.0, Standard deviation 1.7843151543908982 %",8.95%
same,inhibition,"PRVABC59, Concentration 198.0 uM, Number of replicates 2.0, Standard deviation 2.0307369880408768 %",16%
CC1CCN(CCCCNC(=O)c2cc(Cl)ccc2NS(=O)(=O)c2ccc(Oc3ccccc3Cl)cc2)CC1,inhibition,[2],19%
Cc1cnccc1NC(=O)CNC(=O)CC(C)C,inhibition,"PRVABC59, Concentration 49.5 uM, Number of replicates 2.0, Standard deviation 2.4034449411705934 %",-2.35%
same,inhibition,"PRVABC59, Concentration 99.01 uM, Number of replicates 2.0, Standard deviation 3.1298748722876275 %",-2.94%
same,inhibition,"PRVABC59, Concentration 198.0 uM, Number of replicates 2.0, Standard deviation 2.7521313401383747 %",-2.55%
Cc1cnccc1NC(=O)c1ccccc1OCc1ccccc1,inhibition,"PRVABC59, Concentration 49.5 uM, Number of replicates 2.0, Standard deviation 1.0351957624059638 %",-0.547%
same,inhibition,"PRVABC59, Concentration 99.01 uM, Number of replicates 2.0, Standard deviation 1.0038673777050886 %",-2.12%
same,inhibition,"PRVABC59, Concentration 198.0 uM, Number of replicates 2.0, Standard deviation 2.6833364301600433 %",-4.2%
Cc1cnccc1NC(=O)c1ccnc(C(C)C)n1,inhibition,"PRVABC59, Concentration 49.5 uM, Number of replicates 2.0, Standard deviation 1.345795845615512 %",1.22%
same,inhibition,"PRVABC59, Concentration 99.01 uM, Number of replicates 2.0, Standard deviation 3.3811519385923643 %",2.95%
same,inhibition,"PRVABC59, Concentration 198.0 uM, Number of replicates 2.0, Standard deviation 2.6839011979300893 %",6.25%
Cc1cc(CO)c2cccc(CC(=O)Nc3nonc3C(N)=O)c2n1,inhibition,"PRVABC59, Concentration 49.95 uM, Number of replicates 2.0, Standard deviation 0.05598719921229546 %",82%
same,inhibition,"PRVABC59, Concentration 99.9 uM, Number of replicates 2.0, Standard deviation 1.0790078750483718 %",86.1%
Nc1ccc(C(=O)Nc2nc3ccccc3s2)nc1,inhibition,"PRVABC59, Concentration 198.0 uM, Number of replicates 2.0, Standard deviation 0.01391082023211164 %",1.18%
CCOc1ccc(CCNC(=O)c2cc(Cl)ccc2NS(=O)(=O)c2ccc(Oc3ccccc3Cl)cc2)cc1OC,inhibition,[2],19.1%
O=C(c1cc(Cl)ccc1NS(=O)(=O)c1ccc(Oc2ccccc2Cl)cc1)N1CCC(CCN2CCCC2)CC1,inhibition,[2],10.8%
